Reference: the supplement of paper PMC12645437, “Orthogonal IMiD-Degron Pairs Induce Selective Protein Degradation in Cells” (ACS Chemical Biology, 2025)
The other results are listed elsewhere or left out.

Molecular target: no compound (DMSO)
Test: log2 fold change of degron read counts, EGFP-low vs EGFP+ sorted cells; higher = lower degron-EGFP level without compound (poor expression or instability)
Conditions: compound: DMSO control; 18 h
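Note: jurkat cells carrying a lentiviral library of mutant zinc finger degrons fused to EGFP plus mCherry, mCherry+ cells FACS sorted, degron abundance counted by next-generation sequencing.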

Sequence	log2 fold change of degron read counts
LDCEICGFYCTQKGNLLRHIKL	1.43
FMCEQCGAAFTQKGNLLRHIKL	-2.56
FLCPICGASFTQKGNLLRHIKL	-0.616
FGCEICGRNFTQKGNLLRHIKL	-1.61
FTCEICGADFTQKGNLLRHIKL	-1.84
FTCSVCGHRFTQKGNLLRHIKL	-0.243
FDCPICGRGFTQKGNLLRHIKL	-0.612
FHCEICGHIFTQKGNLLRHIKL	0.24
FVCDQCGAQFTQKGNLLRHIKL	-1.25
FACEICGAMFTQKGNLLRHIKL	-1.37
LWCEICGFACTQKGNLLRHIKL	1.29
LVCPICGFACTQKGNLLRHIKL	0.747
FECNICGAWFTQKGNLLRHIKL	-0.339
FICDVCGAAFTQKGNLLRHIKL	-1.28
FMCDVCGARFTQKGNLLRHIKL	-1.23
FQCDICGAMFTQKGNLLRHIKL	-1.16

Sequence	log2 fold change of degron read counts
FRCPICGRFFTQKGNLLRHIKL	0.753
FFCPVCGAEFTQKGNLLRHIKL	-0.202
FTCSVCGHKFTQKGNLLRHIKL	0.0406
FLCPICGRVFTQKGNLLRHIKL	0.233
FGCNICGAWFTQKGNLLRHIKL	0.381
FCCDVCGAYFTQKGNLLRHIKL	-0.255
FECDQCGACFTQKGNLLRHIKL	-2.57
FSCNICGAVFTQKGNLLRHIKL	-0.479
FKCDVCGASFTQKGNLLRHIKL	-2.47
FYCEICGRKFTQKGNLLRHIKL	-1.02
FDCEICGAGFTQKGNLLRHIKL	-1.48
FDCEICGHLFTQKGNLLRHIKL	0.856
FSCPQCGACFTQKGNLLRHIKL	-0.796
LDCPICGFGCTQKGNLLRHIKL	0.412
FLCPQCGAKFTQKGNLLRHIKL	-1.37
FKCSVCGHEFTQKGNLLRHIKL	-1
